Results as given in the supplement of paper PMC4166925.
± gives the standard deviation of the averaged measurements. Whole data set: some 33,000 sequences, median “E-score (dimensionless, -0.5 to 0.5)” near -0.046, cut for the highest 2% near 0.36. This is one part of the list.

system: T1, SpTbr T-box DNA-binding domain (GST fusion); assay: PBM E-score of 8-mer (E-score (dimensionless, -0.5 to 0.5)); Tbr is Tbrain of the sea star Patiria miniata (Pm) or the sea urchin Strongylocentrotus purpuratus (Sp); higher = stronger binding preference; most listed sequences are background and not binding sites; conditions: the construct has about 5 more residues each side
T1 sequence: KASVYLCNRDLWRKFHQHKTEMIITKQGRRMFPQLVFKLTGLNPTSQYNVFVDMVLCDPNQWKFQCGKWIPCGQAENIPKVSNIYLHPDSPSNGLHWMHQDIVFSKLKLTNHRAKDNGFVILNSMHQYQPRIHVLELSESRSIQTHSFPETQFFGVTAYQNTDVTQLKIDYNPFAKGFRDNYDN
Procedure: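 Universal protein-binding microarray (Agilent AMADID 016060, 60-bp probes with a 35-bp variable region) incubated with 200 nM GST-fused Strongylocentrotus purpuratus Tbr T-box DNA-binding domain (residues 362-554) in PBS pH 7.5. Scored for every ungapped 8-mer (given with its reverse complement) as E-score (range -0.5 to 0.5; >0.45 counts as bound) and Z-score of median probe intensity. Two replicate arrays (datasets 1 and 2).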
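Also: protein at 200 nM in PBS on universal double-stranded arrays.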

Sequence | PBM E-score of 8-mer
CAAGGCCC | -0.109 ± 0.046
GAGGATGC | -0.0317 ± 0.049
GATGCCCA | -0.0739 ± 0.01
CGCAAAAG | 0.0879 ± 0.014
TATTGCAA | -0.18 ± 0.026
CGTACCTA | -0.144 ± 0.053
GGAAGCAC | -0.149 ± 0.046
AGGGGAAT | -0.0459 ± 0.081
CGACTCAC | 0.154 ± 0.025
CATATCCC | -0.0752 ± 0.018
CTAGAGAA | -0.2568 ± 0.00037
CTTAGAGA | -0.116 ± 0.046
ACTAAAGG | 0.0555 ± 0.022
ATTCACAA | 0.299 ± 0.061
CCCCTTCC | -0.0364 ± 0.015
CGCACGCG | 0.289 ± 0.0054
GAATGGGC | -0.0947 ± 0.025
CAGAGCAC | -0.222 ± 0.038
GGGGGCAC | -0.164 ± 0.034
GATCTGGC | -0.0574 ± 0.02
ATCGGTGG | 0.0155 ± 0.037
ATCCGATG | -0.0721 ± 0.0035
AGGGCCCA | -0.214 ± 0.045
ACCCATCA | -0.0914 ± 0.03
AACTGGCT | -0.2 ± 0.041

Sequence | PBM E-score of 8-mer
CGAAGGCC | -0.0308 ± 0.0029
AGAGCGGG | -0.162 ± 0.0011
AATAAATC | -0.0519 ± 0.03
CCTAATCC | -0.2286 ± 0.0013
AAAAGGCG | 0.151 ± 0.029
GATAAGGC | 0.0701 ± 0.068
GAGTTGAA | 0.0197 ± 0.058
GTCCCCTA | -0.1744 ± 0.00018
CATACGAA | -0.123 ± 0.0087
CTTCCCGC | 0.0447 ± 0.03
AGTGAACT | -0.15 ± 0.029
CACTGCAA | 0.0294 ± 0.028
CCATAAGG | -0.0717 ± 0.0012
AATCGGCG | 0.0109 ± 0.019
TAAGGTCA | -0.204 ± 0.0041
ACGTCGCT | 0.00858 ± 0.017
GGTTCCAC | 0.0893 ± 0.0063
CGCCCGGA | -0.193 ± 0.024
ACGGCCCA | -0.208 ± 0.057
AGTTTCCG | -0.0927 ± 0.026
CAGTCTAG | -0.216 ± 0.039
ATTGGGCA | -0.312 ± 0.046
CTAGGTCA | -0.0382 ± 0.079
ATCGCTGG | -0.00641 ± 0.019
ACGTAGAA | -0.123 ± 0.062

Sequence | PBM E-score of 8-mer
TGAATCAA | -0.164 ± 0.048
ATCATCTC | -0.157 ± 0.014
GTTCAACA | -0.118 ± 0.054
AAACACCA | 0.238 ± 0.027
AAAGTCTA | -0.128 ± 0.035
ATTCCACA | 0.122 ± 0.012
GAGAACAA | 0.193 ± 0.017
ACTGACGC | 0.205 ± 0.0024
CCCATCAA | -0.218 ± 0.013
TGCTGCCA | 0.0386 ± 0.0016
CACCTTCC | 0.401 ± 0.014
GTATAGGA | -0.197 ± 0.048
GCCCCAGC | -0.145 ± 0.059
AAGTTCCC | -0.19 ± 0.011
AGGACTTG | -0.184 ± 0.0089
GCGAAGGA | 0.12 ± 0.0058
ACGAGCGT | 0.0712 ± 0.013
CGTCTGGA | -0.0646 ± 0.015
AGCCATGC | -0.214 ± 0.056
AGATGGGG | -0.048 ± 0.029
AACTTAGA | -0.1177 ± 0.0005
GGATCCTA | -0.166 ± 0.017
AGCTTTAT | -0.108 ± 0.053
AAATAGCA | 0.199 ± 0.012
GACATTGA | -0.000185 ± 0.12

Sequence | PBM E-score of 8-mer
CCATCCAG | -0.0893 ± 0.03
CTCGCGGA | 0.143 ± 0.14
ATTTCCAA | -0.13 ± 0.0086
AGCTCACA | 0.23 ± 0.0052
CACTAGAC | 0.107 ± 0.028
ACTGCTAA | 0.193 ± 0.1
ATAGTGCA | -0.0294 ± 0.065
CCAACCGA | 0.0295 ± 0.059
AGGCCCCA | -0.0759 ± 0.14
GATGCAGA | -0.0881 ± 0.054
CTAACGAG | 0.15 ± 0.033
CCTGAACG | -0.068 ± 0.015
ACACACAA | 0.148 ± 0.02
CGAGCGCC | -0.0102 ± 0.18
AGCTGAGG | 0.0408 ± 0.035
CGAGGACC | 0.0112 ± 0.036
CCGGTTCG | 0.0166 ± 0.091
ACCCCTAA | -0.111 ± 0.012
ACAAAGGT | 0.119 ± 0.0064
ACAAACGT | 0.0139 ± 0.022
CGCGTTAC | 0.127 ± 0.0069
GACCTAGA | -0.223 ± 0.017
CATAACGG | -0.0574 ± 0.062
GTTAAAAC | 0.239 ± 0.028
TTCTAAAA | -0.167 ± 0.011

Sequence | PBM E-score of 8-mer
ATAATGCC | -0.199 ± 0.041
TACTCTGA | -0.25 ± 0.034
CATTTCCC | -0.0373 ± 0.0013
CGTCCTAA | -0.188 ± 0.032
GCGTGCAC | 0.0755 ± 0.032
ATGTCTAC | -0.243 ± 0.011
AAAAAACT | -0.169 ± 0.046
GATACATC | 0.0657 ± 0.038
ATGTTGGA | -0.0349 ± 0.065
GCTTTCCA | -0.122 ± 0.037
GGTTTTCA | -0.0937 ± 0.091
AAGATGCC | -0.086 ± 0.038
CTCCAAAG | -0.0265 ± 0.11
AGGGGAAC | -0.203 ± 0.014
ACTTTAGC | 0.0902 ± 0.074
CCTACTCG | -0.0254 ± 0.027
CATAAACC | -0.154 ± 0.017
AGGTATGG | -0.189 ± 0.052
AGGCCGAG | -0.00279 ± 0.03
TGGCTGAA | -0.117 ± 0.0019
ATGTCGGG | -0.00289 ± 0.027
CAGATCGA | -0.12 ± 0.014
AACACTAA | 0.247 ± 0.029
AACAACTG | 0.206 ± 0.046
GGAAATGA | -0.187 ± 0.048

Sequence | PBM E-score of 8-mer
GATAAGGA | -0.146 ± 0.046
AATCACGT | 0.118 ± 0.0071
CGCTAGCA | 0.205 ± 0.012
GCACGAAC | 0.0476 ± 0.034
GGAATCAC | 0.0517 ± 0.012
CCATCTAA | -0.174 ± 0.059
AGAGCACG | -0.126 ± 0.039
AAATTAAG | -0.388 ± 0.021
CTATAACC | 0.073 ± 0.07
CCATGCGG | -0.174 ± 0.044
AGTTATTA | 0.227 ± 0.028
CTTCCTGC | -0.108 ± 0.004
CAGTGCTA | 0.159 ± 0.0028
GTCATGCA | -0.182 ± 0.042
CCCCCACG | -0.104 ± 0.021
ACATCGGA | 0.0649 ± 0.018
AGCCTGTG | 0.0745 ± 0.026
ATCTCTAC | -0.113 ± 0.076
CACTGCCG | 0.0182 ± 0.06
GACTTTAA | -0.226 ± 0.063
ACCTTGTG | 0.238 ± 0.04
ATAACAAA | 0.0503 ± 0.031
AGACAGGG | -0.112 ± 0.013
ACAACTTA | 0.187 ± 0.0019
GTCCGTTA | -0.103 ± 0.061

Sequence | PBM E-score of 8-mer
AAAATACA | -0.102 ± 0.0041
CGAATAGC | 0.074 ± 0.005
GAAGGGCA | 0.0018 ± 0.0055
CAGTCACC | 0.109 ± 0.0097
ACGGGTCT | 0.0764 ± 0.029
AGGATTTC | -0.0945 ± 0.063
AAGTAGCA | 0.119 ± 0.071
CCTGTCAG | 0.17 ± 0.015
ACTGCGCC | 0.0616 ± 0.043
ATGGAACC | -0.165 ± 0.072
AAGCACTA | -0.154 ± 0.068
CACTAGGA | -0.0843 ± 0.041
TATTGGCA | 0.149 ± 0.033
GCTCCTTA | -0.169 ± 0.027
TCGCCCCA | 0.0276 ± 0.008
AACTACGA | -0.178 ± 0.042
CCACTACC | -0.129 ± 0.0055
GGAGCGCC | 0.0178 ± 0.0015
CCTCCGAC | 0.0983 ± 0.037
CTAACACA | 0.354 ± 0.0043
CCCGAGCC | -0.0779 ± 0.015
ATGTTAGA | -0.136 ± 0.095
